Reference: the supplement of paper PMC3334620
In all, about 33,000 sequences were measured (“E-score (-0.5 to 0.5)”: median about -0.036, highest 2% from about 0.37 on). Some of the results follow.

Each sequence was assayed against T1, Yer064c (UniProt P40041) (assay: PBM E-score (8-mer binding enrichment) (E-score (-0.5 to 0.5)); higher = stronger / more preferred TF binding; most listed sequences are background and not binding sites). Details: protein concentration: 200 nM; construct: GST-full length.
T1 sequence: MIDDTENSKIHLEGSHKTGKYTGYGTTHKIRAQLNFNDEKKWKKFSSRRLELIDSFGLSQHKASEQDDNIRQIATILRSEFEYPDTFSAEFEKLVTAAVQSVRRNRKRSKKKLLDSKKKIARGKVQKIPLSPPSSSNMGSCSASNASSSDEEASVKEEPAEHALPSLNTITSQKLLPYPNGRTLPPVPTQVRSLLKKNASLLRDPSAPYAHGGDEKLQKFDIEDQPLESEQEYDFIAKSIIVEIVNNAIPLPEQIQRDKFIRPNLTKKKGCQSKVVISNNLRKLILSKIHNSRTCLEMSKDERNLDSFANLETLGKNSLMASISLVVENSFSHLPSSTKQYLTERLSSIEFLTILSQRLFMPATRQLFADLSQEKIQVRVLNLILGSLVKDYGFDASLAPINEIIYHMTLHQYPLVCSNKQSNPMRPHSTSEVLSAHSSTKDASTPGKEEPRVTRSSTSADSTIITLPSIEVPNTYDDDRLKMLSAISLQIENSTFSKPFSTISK
Method: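 Universal 'all 10-mer' protein binding microarrays (Agilent AMADID 015681) probed with GST-tagged S. cerevisiae TFs (full-length or DBD) made by in vitro transcription/translation (PURExpress), about 100-200 nM. Bound TF was detected with fluorescent anti-GST. Each ungapped 8-mer (which stands for itself and its reverse complement) is scored by the PBM enrichment score (E-score), a modified Wilcoxon-Mann-Whitney statistic from -0.5 to +0.5, computed with the Universal PBM Analysis Suite. Scale: above 0.35 generally sequence-specific binding.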

Row | Sequence | PBM E-score
1 | CACAGGAC | 0.111
2 | AGTAGTTC | 0.0493
3 | ACCTAGAG | -0.0157
4 | GTCGGGCA | -0.102
5 | AAATCGAT | 0.178
6 | ACTTTAGG | -0.109
7 | CTTTGCAA | -0.0619
8 | GGCGCTAA | -0.134
9 | CCTCTCAG | -0.261
10 | GACTCCGC | 0.406
11 | AGACGTTG | -0.121
12 | ACCCGTTG | 0.0442
13 | ACCGGAAC | -0.0777
14 | CATTTGGA | 0.0626
15 | AGAGTTCA | 0.0918
16 | GACCCGTC | -0.198
17 | CGGGGGGA | -0.208
18 | CTAAGTTC | -0.00119
19 | AACATATA | -0.0277
20 | AGGGCTGG | -0.22
21 | GGAGATCC | -0.237
22 | AATGTCTA | 0.168

Row | Sequence | PBM E-score
23 | TTGCAAAA | -0.0977
24 | CACCGACC | -0.149
25 | AATGTTAA | 0.0712
26 | ACTGCGAT | 0.0303
27 | AGACCGCA | -0.188
28 | CAAGCAAG | -0.0296
29 | AGCTCCAA | 0.0829
30 | GGCCTCGA | -0.288
31 | CCTGGCAA | -0.288
32 | GTCACTAA | 0.257
33 | ATTACCGC | -0.00207
34 | TCAAGGGA | 0.162
35 | GCTTCCCC | -0.44
36 | ATCAACCC | 0.0851
37 | AGGCGCGA | -0.027
38 | ACCCCACA | 0.0478
39 | AAGGGTGC | -0.138
40 | TAGTCTCA | 0.36
41 | CATTTCCG | 0.158
42 | CTACGACA | 0.116
43 | CCCGCCAG | -0.159
44 | ACCCAGAG | 0.0289

Row | Sequence | PBM E-score
45 | CAAAAAGA | 0.137
46 | CGTTAGGC | -0.237
47 | AACCTACT | -0.229
48 | CTCGGAGC | -0.0319
49 | CCCGTAGC | -0.19
50 | AATAAGCG | -0.0876
51 | CTACACAC | 0.0826
52 | AATTCACA | -0.0891
53 | GACGGGGC | -0.251
54 | CAACGTTA | -0.024
55 | CGAAGTGC | -0.0428
56 | GTATTCCA | -0.0362
57 | TTACTAAA | 0.214
58 | CCTAGGCG | -0.178
59 | GGCAAGTA | 0.0688
60 | AATAAAAC | 0.0489
61 | GTCAGAAA | 0.211
62 | ACACAACC | 0.0769
63 | CATGATTC | 0.457
64 | ATAATGGA | -0.0018
65 | CGTGCAGC | -0.188
66 | ACCCATTC | 0.158

Row | Sequence | PBM E-score
67 | ATTACTAA | 0.24
68 | GGGGGCCA | -0.21
69 | ACATGCTG | -0.105
70 | ATACTATG | 0.0358
71 | CCTTAACG | -0.106
72 | CACCACCA | 0.0278
73 | AAATGCGG | -0.0645
74 | GTTTGAAA | 0.0216
75 | ACAATGTG | -0.0494
76 | GCCACATA | -0.136
77 | CGCTTACC | -0.223
78 | ACATGCGT | -0.0835
79 | CGACGGAC | -0.0779
80 | CCATTGGA | 0.0747
81 | GATGTGTA | 0.205
82 | CATTTCGC | 0.0492
83 | ATCAAGCG | -0.0196
84 | CTTTGCGC | 0.0446
85 | AAAATGAA | 0.137
86 | GCGCATTA | -0.112
